The text below walks through data of PMC4336329 (PLoS ONE, 2015).

Molecules are shown by their SMILES. In all, about 310,000 compounds went through this assay and about 2,200 (0.71%) showed an effect of 50% or more. The effect is printed as a negative number. The list shows a part of the results.

This experiment deals with human ether-à-go-go-related gene (hERG) potassium channel (human, UniProt Q12809). The experiment in a line: primary screen, population patch clamp on CHO cells stably expressing hERG.
Chain of human ether-à-go-go-related gene (hERG) potassium channel (Q12809 whole entry, looked up): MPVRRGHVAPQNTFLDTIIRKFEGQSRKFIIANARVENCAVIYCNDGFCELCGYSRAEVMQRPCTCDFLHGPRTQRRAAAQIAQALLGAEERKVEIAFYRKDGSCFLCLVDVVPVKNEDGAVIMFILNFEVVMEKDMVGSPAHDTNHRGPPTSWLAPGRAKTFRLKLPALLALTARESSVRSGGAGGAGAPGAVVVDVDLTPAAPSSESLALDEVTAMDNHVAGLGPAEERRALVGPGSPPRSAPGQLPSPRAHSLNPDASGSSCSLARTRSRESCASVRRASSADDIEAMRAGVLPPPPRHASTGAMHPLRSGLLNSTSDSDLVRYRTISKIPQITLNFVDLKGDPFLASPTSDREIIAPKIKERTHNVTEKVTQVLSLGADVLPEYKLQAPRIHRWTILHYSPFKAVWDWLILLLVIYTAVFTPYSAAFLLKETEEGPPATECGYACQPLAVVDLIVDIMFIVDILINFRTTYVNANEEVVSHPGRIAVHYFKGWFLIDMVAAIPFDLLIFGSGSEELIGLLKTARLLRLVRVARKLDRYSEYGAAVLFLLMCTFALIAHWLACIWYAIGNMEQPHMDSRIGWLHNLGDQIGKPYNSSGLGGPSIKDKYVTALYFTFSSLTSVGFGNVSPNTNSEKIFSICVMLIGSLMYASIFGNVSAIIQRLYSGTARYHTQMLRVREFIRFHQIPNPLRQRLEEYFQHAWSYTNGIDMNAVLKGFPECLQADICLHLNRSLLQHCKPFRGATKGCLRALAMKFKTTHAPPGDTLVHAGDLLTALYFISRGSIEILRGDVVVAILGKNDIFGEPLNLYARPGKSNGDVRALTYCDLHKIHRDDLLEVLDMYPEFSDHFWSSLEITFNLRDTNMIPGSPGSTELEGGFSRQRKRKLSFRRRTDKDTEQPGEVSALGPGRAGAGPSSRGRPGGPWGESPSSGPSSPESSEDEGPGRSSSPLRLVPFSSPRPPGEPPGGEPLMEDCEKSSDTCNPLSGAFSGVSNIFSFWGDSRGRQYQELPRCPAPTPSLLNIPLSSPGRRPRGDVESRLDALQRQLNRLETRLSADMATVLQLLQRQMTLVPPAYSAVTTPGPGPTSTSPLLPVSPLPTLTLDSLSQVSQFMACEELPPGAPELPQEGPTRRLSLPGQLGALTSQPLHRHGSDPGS
`COc1cccc(C(C(=O)NC2CCCCC2)N(C(=O)c2ccco2)c2ccccc2OC)c1` (stereo not shown): the “hERG current change (%, negative = inhibition) at 1uM” value is reported as -2.11%.
`Cn1nc(-c2ccccc2)c(C(O)c2ccccc2C(F)(F)F)c1Cl` (stereo not shown): the “hERG current change (%, negative = inhibition) at 1uM” value is given as 16.1%.
Take `O=C(O)COc1ccccc1-c1ccccc1`: the “hERG current change (%, negative = inhibition) at 1uM” value is reported as 14.5%.
With `C=C[C@@H]1c2cc(C)ccc2N(S(=O)(=O)c2ccc(C)cc2)[C@H](c2ccc(OC(C)=O)cc2)C1(C#N)C#N` the figure was 13.1%; with `O=C(Cc1ccccc1)Nc1ccc(-c2nnc(-c3ccco3)o2)cc1`, -1.72%.
Then `N#Cc1cccnc1N1CCN(C(=O)c2cccc3c2C(=O)c2ccc(Cl)cc2S3(=O)=O)CC1`, with 1.64%; and `Cc1ccc(S(=O)(=O)Nc2cc3c(C(=O)Nc4ccccc4)c(C)oc3c3ccccc23)cc1`, with 8.66%.
Then `Cc1ccc(OCC(=O)Nc2ccccc2[N+](=O)[O-])c(Br)c1`, with 20.9%; and `CCOC(=O)C(C(=O)OCC)C(C#N)c1ccccc1` (stereo not shown), with 6.84%; and `Cc1ccc(Nc2nnc(C(C)(C)C)c(=O)n2N)cc1`, with 2.86%.
Turning to `COc1cc2[nH]c(=S)nc(NC3CCCCCC3)c2cc1OC`, the “hERG current change (%, negative = inhibition) at 1uM” value came to 22.2%.
In the case of `CC(C)OC(=O)c1c(NC(=O)c2ccco2)sc2c1CCCC2`, the “hERG current change (%, negative = inhibition) at 1uM” value is 4.04%.
`Cn1cc(CNCC2CCCO2)c(-c2ccc(Oc3ccccc3)cc2)n1` (stereo not shown): the “hERG current change (%, negative = inhibition) at 1uM” value worked out at 9.67%.
With `Cc1cccc(NC(=O)C2(C)CC3c4ccccc4C2c2ccccc23)c1` (stereo not shown) the figure was 10.3%; with `COC(=O)Cc1c(C)c2ccc(OC(=O)c3ccccc3)cc2oc1=O`, -4.1%; with `COc1cc(/C=C2\SC(=Nc3ccccc3)N(Cc3ccco3)C2=O)ccc1OC(C)C(=O)O` (stereo not shown), 10.7%.
Consider `COC(=O)c1cc2sc(Cl)cc2n1CC(=O)NCC1CCCO1` (stereo not shown), for which the “hERG current change (%, negative = inhibition) at 1uM” value amounted to 12.1%.
Then `Cc1c(NC(=O)CSc2ccccn2)c(=O)n(-c2ccccc2)n1C`, with 8.52%; and `CCc1ccc(S(=O)(=O)Nc2cc3c(cc2N2CCCCC2)n(C)c(=O)c(=O)n3C)cc1`, with -18%.
With `Cn1cc([N+](=O)[O-])c(C(=O)N/N=C\c2c[nH]c3ccccc23)n1` the figure was -9.91%; with `COc1ccc(CNC(=O)CN(C)S(=O)(=O)c2ccccc2)cc1`, 8.51%.
In the case of `COc1ccc(C(=O)C2CCCN(Cc3cc(Cl)ccc3O)C2)c(OC)c1` (stereo not shown), the “hERG current change (%, negative = inhibition) at 1uM” value is 12.6%.
With `CC/C(O)=C1\C(=O)CC(C)(C)CC1=Nc1ccccc1C` the figure was 9.22%; with `Cc1cc(-c2n[nH]c(=S)n2-c2ccc(C)c(C)c2)no1`, 9.72%; with `O=C(CCn1nc(-c2ccccc2)ccc1=O)NCCCN1CCCCCC1`, -19.2%.
For the compound `CC1SCC(NC(=O)c2cccc(Cl)c2)CS1` (stereo not shown), the “hERG current change (%, negative = inhibition) at 1uM” value amounted to 1.12%.
With `C(=N\n1cnnc1)/c1cccs1` the figure was 5.5%; with `CCc1cc(=O)oc2cc(C)cc(O)c12`, 5.7%; with `CN(C)CCOCCP(=O)(c1ccccc1)c1ccccc1`, -1.59%.
Then `N#Cc1c(-c2ccccc2)nc(SCc2cccc(C(F)(F)F)c2)[nH]c1=O`, with 16.7%.
As for `O=C(COC(=O)C1COc2ccccc2O1)NC(=O)NC1CCCC1` (stereo not shown), the “hERG current change (%, negative = inhibition) at 1uM” value stood at 13.1%.
Then `Cn1c(CNC(=O)Nc2ccccc2Cl)nnc1SCc1ccccc1`, with 2.3%; and `Cc1cc(NC(=O)CSc2nc3c(cc2C#N)CCCC3)no1`, with 6.73%; and `COc1ccc2c(c1OC)C(=O)N1c3ccccc3SC21` (stereo not shown), with 3.14%.
With `Cc1cc(C)n(-c2ccc(C(F)(F)F)cc2[N+](=O)[O-])n1`, the “hERG current change (%, negative = inhibition) at 1uM” value was found to be 8.1%.
Take `Cc1cc(-c2n[nH]c(=S)n2/N=C/C(Cl)=C/c2ccccc2)n[nH]1`: the “hERG current change (%, negative = inhibition) at 1uM” value is 5.13%.
With `Cc1cc(C)c(NC(=O)Nc2ccccc2)c(C)n1` the figure was 20.2%; with `NC(=O)c1cc(-c2ccccc2)nc(N2CCCCCC2)n1`, 19.9%; with `CCCCn1nc2cc(C(=O)N(CC)c3ccc(OC)cc3)ccc2c1OCC`, 16%.
`Cc1cc(C)n(-c2nnc(C)n2/N=C/c2ccco2)n1`: the “hERG current change (%, negative = inhibition) at 1uM” value is on record as 15.3%.
With `Nc1cccc(-c2cc(-c3ccccc3)nc(-c3cccc(N)c3)n2)c1` the figure was 4.73%.
With `CNC(=O)C(=O)NCCN1CCN(C(=O)c2ccc([N+](=O)[O-])cc2)CC1` the figure was 9.09%; with `O=C(N/N=C1\CCCc2oc(C(=O)O)cc21)c1ccccc1`, -18.2%.
With `O=C(CN1CCc2ccccc2C1)Nc1cccc(S(=O)(=O)N2CCOCC2)c1` the figure was 4.21%; with `COc1cccc(-c2nc(=S)c3c(o2)CCCC3)c1`, 14.1%; with `CNC(=O)OCCSCCS(=O)(=O)c1ccc(Cl)cc1`, 7.55%.
`Cc1ccc(NC(=O)CCc2c(C)[nH]c(=O)c(C#N)c2C)cc1`: the “hERG current change (%, negative = inhibition) at 1uM” value was 9.52%.
With `Cc1c(F)cccc1NS(=O)(=O)c1ccccc1C#N` the figure was 9.46%.
Regarding `CC(C)n1cnc2c(=S)nc[nH]c21`, the “hERG current change (%, negative = inhibition) at 1uM” value is listed as 15.7%.
Then `CCOC(=O)C1(C)NC(c2ccc(OC)cc2OC)C2C(=O)N(CC)C(=O)C21` (stereo not shown), with 16.4%; and `Cn1nc(-c2ccccc2)c(-c2nc(-c3ccccc3Cl)no2)c1Cl`, with 6.29%; and `Nc1nonc1-n1nnc(C(=O)N/N=C/c2ccc(OCc3cccc(Cl)c3)cc2)c1CN1CCCCC1`, with 21.6%.
Turning to `CC(C)(C)C(=O)Cn1ncc(N2CCOCC2)c(Br)c1=O`, the “hERG current change (%, negative = inhibition) at 1uM” value stood at 12.2%.
Then `Clc1ccc(CSc2nnc(-c3ccncc3)o2)c(Cl)c1`, with 16.3%.
Then `COc1cccc(C(C)NC(=O)Nc2ccccc2Cl)c1` (stereo not shown), with 10.2%; and `COc1ccc(NC(=O)c2cc(C)on2)cc1`, with -1.54%.
Take `CC(=O)NC(CCS(C)(=O)=O)C(=O)Nc1cccc(C)c1` (stereo not shown): the “hERG current change (%, negative = inhibition) at 1uM” value came to 4.79%.
Then `Cc1cc(C)c2nc3c(c(C(=O)O)c2c1)CCC3`, with 13.6%; and `CC12CCC(C(=O)N(CCCCN3CCN(Cc4ccccc4)CC3)C1=O)C2(C)C.Cl` (stereo not shown), with -4.08%; and `CCOc1ccc(Cl)cc1S(=O)(=O)n1cnc2cc(C)c(C)cc21`, with 10.9%.
As to `CCOc1ccc(OCCC(=O)N(CC)CC(=O)Nc2ccccc2C(F)(F)F)cc1`, the “hERG current change (%, negative = inhibition) at 1uM” value is reported as -7.63%.
For the compound `COc1ccccc1C(=O)Nc1ccnn1C1CCN(Cc2ccc3nonc3c2)CC1`, the “hERG current change (%, negative = inhibition) at 1uM” value is listed as -61.8%.
With `CC(=O)c1cccc(N(C(=O)c2ccccn2)C(C(=O)NC2CCCCC2)c2ccccc2)c1` (stereo not shown), the “hERG current change (%, negative = inhibition) at 1uM” value is given as 13%.
Then `COc1ccc(/C(C)=C(\C#N)C(=O)OC(C)C)cc1OC`, with 7.26%; and `COCCCNCC(O)C(F)(F)F` (stereo not shown), with 13.5%; and `C/C(=N\N=C1/NC(=O)C(C)S1)c1ccco1` (stereo not shown), with 1.89%.
As to `CCC1CCCCN1C(=O)CSc1nc2ncccc2[nH]1` (stereo not shown), the “hERG current change (%, negative = inhibition) at 1uM” value came out at 16.2%.
Take `CC(C)CC(=O)NC(=S)NNC(=O)c1ccc([N+](=O)[O-])cc1`: the “hERG current change (%, negative = inhibition) at 1uM” value is 11.1%.
Consider `Cc1ccc(Cc2nnc(SCC(=O)Nc3ccccc3)n(N)c2=O)cc1`, for which the “hERG current change (%, negative = inhibition) at 1uM” value is 0.134%.
With `Cc1cc(N)n2ncc(-c3ccc(Cl)cc3)c2n1` the figure was 0.838%.
As for `CC(=O)c1ccc(NS(=O)(=O)Cc2ccc(Cl)cc2)cc1`, the “hERG current change (%, negative = inhibition) at 1uM” value is on record as -8.67%.
For `COc1ccc(NC(=O)CN(C)C(=O)c2ccccc2CCc2ccccc2)cc1`, the “hERG current change (%, negative = inhibition) at 1uM” value is reported as 13%.
With `Cc1ccc2c(CN3CCN(S(=O)(=O)c4ccccc4C(F)(F)F)CC3)cc(=O)oc2c1C` the figure was 5.6%; with `CCc1ccccc1NC(=O)C1COc2ccccc2O1` (stereo not shown), 13.3%.
For the compound `Cc1ccc(-c2nc(CS(=O)(=O)CC(=O)NC3CCCCCC3)c(C)o2)cc1`, the “hERG current change (%, negative = inhibition) at 1uM” value was found to be 7.24%.
For `O=C(CSc1nc(C(F)(F)F)cc(=O)[nH]1)N1CCCCCC1`, the “hERG current change (%, negative = inhibition) at 1uM” value was 5.27%.
With `O=C(NCc1cccnc1)c1ccc(COc2ccccc2Cl)o1` the figure was 8.89%; with `COCCCC1CCN(Cc2cn[nH]c2-c2cc(OC)c(OC)c(OC)c2)CC1`, -40.1%; with `COc1ccc(NC(=O)/C(C#N)=C/c2ccc(Br)o2)cc1`, -9.37%.
Regarding `O=C(NNC(=O)c1cccnc1Cl)c1ccc(F)cc1`, the “hERG current change (%, negative = inhibition) at 1uM” value was 9.53%.
Take `NC(=O)N=Nc1c2[nH]c3ccccc3nc-2c2ccccc12`: the “hERG current change (%, negative = inhibition) at 1uM” value was 12%.
With `O=Cc1c(NCc2ccccc2F)c2ccccc2[nH]c1=O` the figure was 11%; with `CCOc1cc(OCC)cc(C(=O)Nc2cccc(C(C)=O)c2)c1`, 3.27%.
With `Cn1c(SCC(=O)OCc2ccccc2)nnc1-c1ccco1`, the “hERG current change (%, negative = inhibition) at 1uM” value is on record as 6.34%.
For `CC(C)Oc1ccc(C(=O)Nc2ccc(N(C)C)cc2)cc1`, the “hERG current change (%, negative = inhibition) at 1uM” value was 1.17%.
With `COc1ccccc1-c1nnc(SCC(=O)NCc2cccs2)n1N`, the “hERG current change (%, negative = inhibition) at 1uM” value is given as 7.38%.
As to `O=C(NCc1ccc2c(c1)OCO2)c1cc(F)c(F)cc1Cl`, the “hERG current change (%, negative = inhibition) at 1uM” value worked out at 6.86%.
Then `COC(=O)C1=C(C(=O)OC)[C@@H]2N(Cc3ccccc3)c3ccccc3[C@@]23C[C@@H](C(=O)OC)N(C(=O)c2ccc(Br)cc2)C3=N1`, with 15.6%; and `Cc1ccc(C2NC(=O)Cc3ccccc32)cc1` (stereo not shown), with 5.35%; and `CC(C(=O)Nc1cc([N+](=O)[O-])ccc1Cl)N1CCN(c2ccccc2)CC1` (stereo not shown), with -7.6%.
For the compound `O=C(NCc1ccccc1Br)c1cccc2c1C(=O)c1ccc(N3CCOCC3)cc1S2(=O)=O`, the “hERG current change (%, negative = inhibition) at 1uM” value is listed as 13.9%.
